This is an account of results in the supplement of paper PMC3334620.

Whole data set: some 33,000 sequences, median “E-score (-0.5 to 0.5)” near -0.041, cut for the highest 2% near 0.37. The list shows a part of the results.

The target of this assay is T1, Ecm22 (UniProt Q05958).
T1 sequence: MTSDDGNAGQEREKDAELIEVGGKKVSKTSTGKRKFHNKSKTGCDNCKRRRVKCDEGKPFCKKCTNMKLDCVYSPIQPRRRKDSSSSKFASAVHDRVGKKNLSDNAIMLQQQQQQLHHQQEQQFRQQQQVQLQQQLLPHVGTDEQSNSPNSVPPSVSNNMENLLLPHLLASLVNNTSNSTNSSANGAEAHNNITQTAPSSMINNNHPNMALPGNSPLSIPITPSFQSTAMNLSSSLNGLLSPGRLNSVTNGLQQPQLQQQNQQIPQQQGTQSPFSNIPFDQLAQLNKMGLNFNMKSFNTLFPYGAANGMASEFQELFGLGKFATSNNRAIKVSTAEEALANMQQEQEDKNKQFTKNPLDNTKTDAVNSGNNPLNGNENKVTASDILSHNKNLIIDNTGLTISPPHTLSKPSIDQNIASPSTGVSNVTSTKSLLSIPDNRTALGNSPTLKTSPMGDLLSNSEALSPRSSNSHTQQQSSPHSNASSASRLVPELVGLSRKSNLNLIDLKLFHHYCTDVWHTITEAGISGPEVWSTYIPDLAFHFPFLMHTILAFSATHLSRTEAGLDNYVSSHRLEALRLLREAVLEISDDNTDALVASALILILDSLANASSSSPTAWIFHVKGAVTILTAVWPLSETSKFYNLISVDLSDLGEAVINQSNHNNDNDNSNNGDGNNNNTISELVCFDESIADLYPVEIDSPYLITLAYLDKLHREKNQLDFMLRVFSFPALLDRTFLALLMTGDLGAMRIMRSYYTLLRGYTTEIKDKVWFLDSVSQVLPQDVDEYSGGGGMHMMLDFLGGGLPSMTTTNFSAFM
Put plainly: PBM E-score (8-mer binding enrichment) (E-score (-0.5 to 0.5)); higher = stronger / more preferred TF binding; most listed sequences are background and not binding sites. The conditions noted are these: protein concentration: 200 nM; construct: GST-full length. In outline: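 GST-tagged yeast TFs (full-length or DNA-binding domain) were made by PURExpress in vitro transcription/translation and applied at about 100-200 nM to universal all-10-mer Agilent arrays. The arrays were made double-stranded by primer extension, on fresh or once-stripped slides. Bound protein was detected with fluorescent anti-GST, and scans were normalised with masliner. Each ungapped eight-base word, pooled with its reverse complement, received an E-score (modified Wilcoxon-Mann-Whitney statistic) from the Universal PBM Analysis Suite.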
GCGAACTA: the “PBM E-score” value was determined as 0.114.
Consider AGCATTGC, for which the “PBM E-score” value is 0.0233.
Take ACGTTTCA: the “PBM E-score” value was 0.107.
The value for CGGCAAAG was -0.0018.
With GGGTACAA, the “PBM E-score” value was -0.0303.
For CGACCGGC, the “PBM E-score” value was determined as 0.0856.
Consider AGCCTGTA, for which the “PBM E-score” value was -0.124.
On to GCGTAAGA, for which the “PBM E-score” value came out at 0.074.
With AGACGTGC, the “PBM E-score” value was -0.112.
In the case of AACGGAGG, the “PBM E-score” value was found to be 0.193.
With AAAATCCA the figure was 0.0311.
Regarding AATAGGCG, the “PBM E-score” value is -0.0977.
For GACTACCC, the “PBM E-score” value was -0.191.
Consider CGCCTACC, for which the “PBM E-score” value was -0.0639.
The value for AACTCTGT was -0.0778.
Regarding AAAGGCCC, the “PBM E-score” value is -0.162.
On to AGCATTCA, for which the “PBM E-score” value was -0.166.
Consider GATGCATC, for which the “PBM E-score” value is -0.0161.
In the case of ATCCATAA, the “PBM E-score” value worked out at 0.136.
Consider ACGGTAAT, for which the “PBM E-score” value came out at 0.112.
Regarding AGTGATTC, the “PBM E-score” value is -0.0577.
For the sequence ACATCAGA, the “PBM E-score” value was -0.0455.
The value for AACCTGGC was -0.111.
With CAGTGAAG, the “PBM E-score” value is -0.346.
Take CCCCTGGC: the “PBM E-score” value was -0.188.
As for CGAGATGA, the “PBM E-score” value worked out at 0.278.
For ATCTTGGG, the “PBM E-score” value was -0.307.
Consider GGTCACAA, for which the “PBM E-score” value is -0.0338.
As to GTAGAGTA, the “PBM E-score” value is 0.0847.
On to GTCCCAAC, for which the “PBM E-score” value is -0.211.
With GACTAATC the figure was 0.0236.
For CAAGGTGC, the “PBM E-score” value is -0.235.
With ACTAATTC the figure was 0.093.
In the case of ACCGAATG, the “PBM E-score” value was found to be 0.141.
On to GCAACACA, for which the “PBM E-score” value was -0.135.
Consider AACCATGT, for which the “PBM E-score” value is -0.0313.
AAACGCCG: the “PBM E-score” value worked out at 0.125.
As to AGTCTAAC, the “PBM E-score” value is -0.051.
Take ACCTCTGA: the “PBM E-score” value was -0.0962.
As for GAGAGGGC, the “PBM E-score” value is -0.21.
In the case of CAACGGGG, the “PBM E-score” value was -0.0303.
As for CCGTCAAG, the “PBM E-score” value is -0.24.
With AACAATAA the figure was -0.0759; with ATCACCAT, -0.0473.
For CCCAAGGA, the “PBM E-score” value is -0.332.
Take CTCGCCAC: the “PBM E-score” value was determined as 0.127.
Consider CATTTAAC, for which the “PBM E-score” value was determined as 0.0224.
Consider GTATCGAC, for which the “PBM E-score” value turned out to be 0.165.
The value for ATTCACCG was 0.0196.
As to AATATAGT, the “PBM E-score” value was 0.0291.
Turning to ATAATTGG, the “PBM E-score” value is -0.0494.
As for ATATGAAA, the “PBM E-score” value was 0.0588.
As to TATCAGAA, the “PBM E-score” value was 0.0643.
With CTGCAGTC the figure was -0.0621; with TCCGACCA, 0.16; with AGACTATG, -0.107.
On to ATAACCGG, for which the “PBM E-score” value was -0.00256.
With ATGAGTTC the figure was -0.137.
For the sequence GTATTATA, the “PBM E-score” value is 0.172.
On to AAAAAAAT, for which the “PBM E-score” value is -0.0221.
In the case of TGGTAACA, the “PBM E-score” value stood at 0.058.
For the sequence GAAAACGA, the “PBM E-score” value was 0.306.
In the case of CTCAGAGC, the “PBM E-score” value is -0.311.
As for AGAGTAGC, the “PBM E-score” value was -0.226.
On to AAATTACC, for which the “PBM E-score” value is 0.103.
The value for GAGAAAAC was -0.0401; that for ACAAGGCG was -0.0883.
Turning to TCGCGCAA, the “PBM E-score” value stood at 0.195.
With TTAAATAA, the “PBM E-score” value was -0.0529.
As to CGTGGAGC, the “PBM E-score” value came to 0.0308.
For CAGGAATG, the “PBM E-score” value is -0.269.
In the case of ATCCGTAA, the “PBM E-score” value turned out to be 0.262.
Turning to CGCGCCTA, the “PBM E-score” value is 0.213.
With GAGCAGAA the figure was 0.0227; with ACTTGGAT, 0.0163; with GGATAGGA, 0.0428.
With TGAGTAAA, the “PBM E-score” value was -0.13.
Turning to AACTCGGG, the “PBM E-score” value stood at 0.116.
As to ACCCGCGA, the “PBM E-score” value is -0.0189.
Take AGATGTCG: the “PBM E-score” value came to 0.178.
The value for GGCAACCC was -0.243.
With CATGGTCG, the “PBM E-score” value was found to be 0.101.
In the case of CCTAAGAC, the “PBM E-score” value is -0.157.
AGGCGGCA: the “PBM E-score” value was -0.33.
With CAACACTA the figure was -0.0848; with AACACATT, 0.00652; with AGTTGTCG, 0.0741.
For the sequence ACTATGCT, the “PBM E-score” value was 0.0226.
With GAAATGGA the figure was -0.147; with AAGTACAG, -0.254.
With AGTTGATG, the “PBM E-score” value was 0.00744.
In the case of CCTGGGTC, the “PBM E-score” value is -0.281.
With AATCGTTC the figure was 0.426; with ATCTGAAG, -0.253; with AAATTGCT, -0.0414.
With CGCAGCAA the figure was -0.0983.
For ACCCACAC, the “PBM E-score” value was -0.0347.
With ATCCCAAG, the “PBM E-score” value was -0.291.
GGGCGCTA: the “PBM E-score” value was -0.225.
The value for ATCTTATC was 0.0565; that for CGTCCAAG was -0.249; that for TGTCTAAA was 0.0287.
CATAGATG: the “PBM E-score” value was -0.127.
With GGAGAGCA, the “PBM E-score” value was -0.131.
With GAGGGCGC the figure was -0.127.
Turning to GACGCAGA, the “PBM E-score” value came to 0.164.
As to GAGTTAAA, the “PBM E-score” value was -0.0938.
As to GGAAGGAC, the “PBM E-score” value was -0.178.
For the sequence GGGACTAC, the “PBM E-score” value was -0.169.
Regarding CTGATTAA, the “PBM E-score” value was 0.0488.
